Several values for one entry are separate records, joined by “and”; a condition that tells them apart may be missing. Equal entries are not always repeated. The whole screen tested about 410,000 compounds, of which about 6,400 (1.6%) were called active. The shares of active, inactive and inconclusive entries below differ from those in the screen. Calls follow the shape of the dose curve; as a rule, active = well fitted inhibition curve with a large enough effect; inconclusive = small, poorly fitted or top-dose-only effect; inactive = no such curve, though single readings can be large or run the other way. Potencies beside an inconclusive call are fits to weak or partial responses and may not hold up.
The compounds below were run against Glucagon-like peptide 1 receptor (Homo sapiens) (UniProt P43220) (assay: qHTS of GLP-1 Receptor Inverse Agonists (Inhibition Mode)). Details: HEK293 GLP-1R CRE-luciferase, luminescence, 24 h, GLP-1R form is constitutively active; activity change, negative = inhibition: at 38.3 µM (top of the series) unless noted.
Method in brief: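 qHTS in 1536-well format: reporter HEK293 cells expressing constitutive GLP-1R activity in DMEM + 10% Nu serum, 24 hr with compounds at 37 deg C, luminescence read after 12 min with detection reagent.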
% is scaled to controls: 0 for no effect and ±100 for the full control effect; potency is read from the fitted curve at half-maximal effect; tags tell the direction and shape of the fitted curve.
Also: nearly all actives have a fitted effect of over 55% in size.

UniProt P43220, sequence (P43220 whole entry, looked up): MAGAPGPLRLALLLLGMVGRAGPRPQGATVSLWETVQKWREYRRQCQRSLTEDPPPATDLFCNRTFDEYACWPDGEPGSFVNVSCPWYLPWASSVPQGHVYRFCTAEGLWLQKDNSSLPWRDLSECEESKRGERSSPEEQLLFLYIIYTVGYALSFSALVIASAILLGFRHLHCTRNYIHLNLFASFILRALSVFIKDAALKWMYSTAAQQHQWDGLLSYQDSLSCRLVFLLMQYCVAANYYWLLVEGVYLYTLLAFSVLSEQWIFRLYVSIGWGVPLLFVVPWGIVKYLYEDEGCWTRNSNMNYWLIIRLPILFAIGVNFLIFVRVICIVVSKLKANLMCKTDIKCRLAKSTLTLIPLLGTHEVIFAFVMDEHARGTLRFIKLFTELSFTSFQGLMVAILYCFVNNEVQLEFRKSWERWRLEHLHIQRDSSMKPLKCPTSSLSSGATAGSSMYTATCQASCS

SMILES	Potency	activity change, negative = inhibition
COc1ccccc1N1CCN(C(=O)c2ccc3nc(-c4ccco4)c(-c4ccco4)nc3c2)CC1	inconclusive: 28.2 µM [inhibitor, single point]	–
C(=C\c1ccccc1)/CN1CCN(C(c2nnnn2C2CCCC2)C2CC2)CC1 (stereo not drawn)	–	inactive: -5.68%
CC(C(=O)NC(=O)NC1CCCCC1)N1CCN(C(c2ccccc2)c2ccccc2)CC1 (stereo not drawn)	inconclusive: 2.51 µM [inhibitor, partial curve, poor fit]	–
CCCCOP(=O)(OCCCC)C1(NS(=O)(=O)c2ccccc2)C=CC(=O)c2ccccc21 (stereo not drawn)	–	inactive: -28.8%
Cc1ccc(Cl)cc1NC(=O)C1CCN(C(=O)c2cnn(-c3ccccc3)c2-n2cccc2)CC1	inconclusive: 15.8 µM [inhibitor, single point]	–
CC1CCc2cc(F)cc3c(O)c(C(=O)NCCN(C)C)c(=O)n1c23 (stereo not drawn)	inconclusive: 12.6 µM [inhibitor, partial curve, poor fit]	–
COc1ccccc1NC(=O)N1CCN(c2cccc(C(F)(F)F)c2)CC1	inconclusive: 12.6 µM [inhibitor, single point]	–
CC(C)OCCCNC(=O)CCCn1c(SCC(N)=O)nc2c(sc3ccccc32)c1=O	–	inactive: 4.78%
COc1ccc(C(=O)OC(C)C(=O)Nc2cc(C(F)(F)F)ccc2Cl)c(OC)c1OC (stereo not drawn)	inconclusive: 28.2 µM [inhibitor, single point]	–
COc1cc(S(=O)(=O)Nc2ccc(C)cc2)ccc1N=Cc1c(C)[nH]n(-c2ccc(C)cc2)c1=O	inconclusive: 14.1 µM [inhibitor, partial curve, poor fit]	–
Cc1nc(-c2ccc(S(=O)(=O)N(Cc3ccccc3)C(C)C)cc2)co1	inconclusive: 28.2 µM [inhibitor, single point]	–
COc1cccc(COC(=O)C2CCN(S(=O)(=O)c3ccc(Cl)cc3)CC2)c1OC	inconclusive: 28.2 µM [inhibitor, single point]	–
COc1ccc2c(-c3ccccc3)cc(SCC(=O)NC3CCS(=O)(=O)C3)nc2c1 (stereo not drawn)	inconclusive: 10 µM [inhibitor, partial curve, poor fit]	–
C=CCOC(=O)C1=C[C@@H](c2csc3ccccc23)[C@H](CCCO)[C@@H](OCC)O1	inconclusive: 22.4 µM [inhibitor, single point]	–
Cn1cc(C(=O)Nc2ccc(C#N)cc2)c2ccccc2c1=O	inconclusive: 11.2 µM [inhibitor, partial curve, poor fit]	–
COc1cc(CNCCCN2CCOCC2)cc(Br)c1OCc1ccc(Cl)cc1	inconclusive: 3.98 µM [inhibitor, partial curve, poor fit]	–
COc1ccc(C2c3ccc4ccccc4c3Oc3ncn(CCO)c(=N)c32)cc1 (stereo not drawn)	inconclusive: 2.82 µM [inhibitor, partial curve]	–
CCOC(=O)/C(=C\Nc1ccc(OC(F)(F)F)cc1)Sc1ncc(C(F)(F)F)cc1Cl	inconclusive: 2.51 µM [inhibitor, partial curve, poor fit]	–
O=C(COc1ccc(Cl)cc1Cl)NCCCn1ccnc1	inconclusive: 15.8 µM [inhibitor, single point]	–
Cc1ccc(CC(=O)Nc2ccc(S(=O)(=O)N3CCOCC3)cc2)cc1C	inconclusive: 11.2 µM [inhibitor, single point]	–

SMILES	Potency	activity change, negative = inhibition
O=C(NNC(=S)Nc1ccccc1Cl)c1ccccc1	–	inactive: 20.3%
N#Cc1sc2nc(N3CCCCC3)c3c(c2c1N)CCCC3	inconclusive: 28.2 µM [inhibitor, single point]	–
O=C(Nc1cccc(C(=O)O)c1)/C(=C\c1ccc2c(c1)OCO2)NC(=O)c1ccc(Br)o1	–	inactive: 38.8%
CCCCc1nc2cc(C(=O)NCc3nccn3CC)ccc2o1	inconclusive: 0.355 µM [inhibitor, full curve, poor fit]	–
O=C(O)CCc1ccc(-c2ccc(Br)cc2)n1-c1cccc(O)c1	inconclusive: 11.2 µM [inhibitor, single point]	–
Cc1cc(C)nc(SCc2ccc(C(=O)N/N=C/c3ccccn3)cc2)n1	inconclusive: 28.2 µM [inhibitor, single point]	–
COC(=O)c1ccc(C(=S)NCC2(N(C)C)CCCCC2)cc1	inconclusive: 11.2 µM [inhibitor, single point]	–
S=c1[nH]nc(-c2ccncc2)n1/N=C/C(Cl)=C\c1ccccc1	–	inactive: -9.04%
COc1ccccc1CNc1nc(NC(C)C)nc2cc(-c3ccccc3)sc12	inconclusive: 12.6 µM [inhibitor, partial curve, poor fit]	–
COC(=O)C(Sc1ccc(Cl)cc1)C1SC(=S)N(Cc2ccccc2)C1=O (stereo not drawn)	inconclusive: 7.94 µM [inhibitor, partial curve, poor fit]	–
COc1cccc(NC(=O)c2sc3ncn(CC(=O)N4CCN(c5ccccn5)CC4)c(=O)c3c2C)c1	inconclusive: 2.51 µM [inhibitor, partial curve, poor fit]	–
Cc1oc(-c2ccc(C(=O)NCc3ccccc3F)cc2)nc1COc1ccccc1	inconclusive: 12.6 µM [inhibitor, single point]	–
COc1ccc(NC(=O)CSc2nc(-c3ccccc3)[nH]c2-c2ccccc2)cc1OC	inconclusive: 28.2 µM [inhibitor, single point]	–
CCN(CC)c1ccc(NC(=O)CN2CCN(S(=O)(=O)c3cc(Cl)ccc3OC)CC2)cc1	inconclusive: 22.4 µM [inhibitor, partial curve, poor fit]	–
COc1ccccc1NC(=O)CN1CCN(c2ccccc2F)CC1	inconclusive: 28.2 µM [inhibitor, single point]	–
N#Cc1c(NC(=O)CCn2cnc3ccccc3c2=O)oc(-c2ccccc2)c1-c1ccccc1	inconclusive: 10 µM [inhibitor, partial curve, poor fit]	–
CCNC(=O)c1ccc(C23CC4CC(CC(C4)C2)C3)o1	inconclusive: 35.5 µM [inhibitor, partial curve, poor fit]	–
CCOC(=O)c1ccc(NC2=CC(=O)C(=O)c3ccccc32)cc1	inconclusive: 15.8 µM [inhibitor, partial curve, poor fit]	–
COC(=O)C1=C(C)N(Cc2ccccc2)C(=NCCc2cccnc2)N[C@H]1c1ccc(Br)cc1	inconclusive: 14.1 µM [inhibitor, single point]	–
C#CC(=O)N(c1cc(OC)ccc1OC)C(C(=O)NC1CCCC1)c1cccs1 (stereo not drawn)	active: 7.94 µM	–

SMILES	Potency	activity change, negative = inhibition
Cc1cc(C)nc(NS(=O)(=O)c2ccc(NC(=O)c3nc(SC(C)C)ncc3Cl)cc2)n1	–	inactive: 14.7%
O=C(CCS(=O)(=O)c1nc(-c2cccs2)cc(C(F)(F)F)n1)Nc1ccc(F)c(Cl)c1	inconclusive: 10 µM [inhibitor, single point]	–
CC(/C=C1\SC(=O)N(CCCC(=O)O)C1=O)=C\c1ccccc1	inconclusive: 8.91 µM [inhibitor, partial curve, poor fit]	–
O=C(NCCCN1CCCCC1)c1[nH]c2ccccc2c1Sc1ccc(Cl)cc1	inconclusive: 11.2 µM [inhibitor, partial curve]	–
C/C(=N/NC(=O)c1ccco1)c1ccc(NC(=O)c2ccc(Br)o2)cc1	–	inactive: 2.1%
S=C(NCc1ccncc1)Nc1ccc(Cl)c(Cl)c1	inconclusive: 10 µM [inhibitor, partial curve, poor fit]	–
CCN1CCN(c2ccc(S(=O)(=O)N3CCCCC3)cc2NC(=O)/C=C/c2cccc(OC)c2OC)CC1	inconclusive: 11.2 µM [inhibitor, partial curve]	–
CC(c1cccs1)N(C)Cc1nc(CCc2ccccc2)no1 (stereo not drawn)	active: 10 µM	–
CCOc1ccc(NC(=O)Cn2nc(SC)c(S(=O)(=O)c3ccccc3)c2N)cc1	inconclusive: 10 µM [inhibitor, partial curve]	–
Cc1ccc2nc(-c3ccc(NC(=S)NC4CC(C)(C)NC(C)(C)C4)cc3)sc2c1	active: 5.01 µM	–
CCCN(CCC)CCCNC(=O)c1ccc2c(c1)N(CC)C(=O)c1ccccc1S2=O (stereo not drawn)	inconclusive: 12.6 µM [inhibitor, partial curve, poor fit]	–
Cc1cc(C(=O)COC(=O)Cc2n[nH]c(=O)c3ccccc23)c(C)n1-c1ccc2c(c1)OCCO2	inconclusive: 12.6 µM [inhibitor, partial curve, poor fit]	–
Cc1ccccc1Cn1nc(C)c(NC(=O)c2cc(CC(C)C)on2)c1C	inconclusive: 10 µM [inhibitor, partial curve, poor fit] and inconclusive: 12.6 µM [inhibitor, partial curve, poor fit]	–
CCOc1ccc(Br)cc1S(=O)(=O)Nc1ccc(C(=O)OCC(=O)N(C)c2ccccc2)cc1	inconclusive: 14.1 µM [inhibitor, single point]	–
CCn1cc(/C=C(\NC(=O)c2ccccc2Cl)C(=O)N2CCN(C)CC2)c2ccccc21	inconclusive: 28.2 µM [inhibitor, partial curve, poor fit]	–
Cc1ccccc1Cn1ccc(NC(=O)c2cnn3c(C(F)(F)F)cc(-c4ccco4)nc23)n1	inconclusive: 28.2 µM [inhibitor, single point]	–
CCOC(=O)c1ccccc1NC(=O)NCc1cccn1Cc1ccc(F)cc1	inconclusive: 5.01 µM [inhibitor, partial curve]	–
O=C(COC(=O)c1cc(S(=O)(=O)N2CCCCC2)ccc1N1CCOCC1)c1ccc(Cl)cc1	inconclusive: 28.2 µM [inhibitor, single point]	–
